Reference: PMC4336329 (PLoS ONE, 2015)
Screen size: about 310,000 compounds; about 2,200 (0.71%) showed an effect of 50% or more. The effect is printed as a negative number. Some of the results follow.

Target: human ether-à-go-go-related gene (hERG) potassium channel (human, UniProt Q12809)
Assay: primary screen, population patch clamp on CHO cells stably expressing hERG

Chain of human ether-à-go-go-related gene (hERG) potassium channel (Q12809 whole entry, looked up): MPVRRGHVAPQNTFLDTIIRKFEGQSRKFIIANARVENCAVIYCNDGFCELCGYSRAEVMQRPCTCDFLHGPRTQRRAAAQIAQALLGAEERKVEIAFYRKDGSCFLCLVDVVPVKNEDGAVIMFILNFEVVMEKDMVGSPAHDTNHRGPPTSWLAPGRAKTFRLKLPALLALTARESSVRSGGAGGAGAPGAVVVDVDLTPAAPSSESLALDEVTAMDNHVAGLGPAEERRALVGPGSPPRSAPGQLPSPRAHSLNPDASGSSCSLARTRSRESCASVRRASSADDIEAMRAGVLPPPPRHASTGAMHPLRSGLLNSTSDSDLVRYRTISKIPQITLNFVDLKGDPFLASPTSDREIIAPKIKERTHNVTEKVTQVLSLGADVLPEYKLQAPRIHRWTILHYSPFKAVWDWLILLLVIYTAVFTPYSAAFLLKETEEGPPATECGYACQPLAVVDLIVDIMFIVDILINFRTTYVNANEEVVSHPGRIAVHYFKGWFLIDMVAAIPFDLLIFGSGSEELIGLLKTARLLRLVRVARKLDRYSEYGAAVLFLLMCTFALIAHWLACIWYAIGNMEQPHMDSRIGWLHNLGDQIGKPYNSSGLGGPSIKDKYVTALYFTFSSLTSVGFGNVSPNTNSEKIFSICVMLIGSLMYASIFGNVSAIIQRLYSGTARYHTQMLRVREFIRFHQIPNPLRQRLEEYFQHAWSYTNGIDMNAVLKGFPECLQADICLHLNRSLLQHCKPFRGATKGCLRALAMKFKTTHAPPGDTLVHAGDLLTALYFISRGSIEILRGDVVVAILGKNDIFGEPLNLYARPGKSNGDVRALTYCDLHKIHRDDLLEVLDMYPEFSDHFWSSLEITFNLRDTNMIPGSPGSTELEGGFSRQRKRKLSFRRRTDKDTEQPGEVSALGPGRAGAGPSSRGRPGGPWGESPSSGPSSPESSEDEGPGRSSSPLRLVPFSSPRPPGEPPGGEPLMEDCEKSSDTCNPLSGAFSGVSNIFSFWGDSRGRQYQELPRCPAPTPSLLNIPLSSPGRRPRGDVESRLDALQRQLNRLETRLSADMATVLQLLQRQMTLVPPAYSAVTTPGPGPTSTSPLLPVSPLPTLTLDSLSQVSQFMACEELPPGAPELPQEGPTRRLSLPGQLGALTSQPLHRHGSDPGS

| SMILES | hERG current change (%, negative = inhibition) at 1uM [%] |
| --- | --- |
| Oc1ccc(C[C@H]2CNCCN2CC2CCCCC2)cc1 | 8.22 |
| CCOc1ccc(NC(=O)CN2C(=O)NC(CCSC)C2=O)cc1 (stereo not shown) | 4.24 |
| C[C@H](/C=C/[C@@]1(O)[C@H](C)C[C@H](O)CC1(C)C)O[C@@H]1O[C@H](CO)[C@@H](O)[C@H](O)[C@H]1O | 13.2 |
| COc1cccc(CN2CCC(n3nccc3NC(=O)CCOc3ccccc3)CC2)c1O | -16.9 |
| CCCC(NS(=O)(=O)c1ccc(Br)cc1)C(=O)O (stereo not shown) | -5.95 |
| OC(C#CCN1CCCC1)(c1ccccc1)c1cccc(F)c1 (stereo not shown) | -2.08 |
| CC(=O)Nc1ccc(OC(=O)Oc2ccc(NC(C)=O)cc2)cc1 | 1.86 |
| CC1=CN2C(=N)/C(=C/c3cn(CCCOc4ccccc4C)c4ccccc34)C(=O)N=C2S1 | 12.8 |
| [O-][n+]1c2cc(C(F)(F)F)ccc2c2n1CCN=C2c1ccc(Cl)cc1 | -28.3 |
| COc1ccc(C(=O)N2CCCC(C(=O)N3CCN(c4ccccc4)CC3)C2)cc1 (stereo not shown) | 7.45 |
| Cc1ccc(CNC(=O)CCc2nnc(Cc3ccc(-c4ccccc4)cc3)o2)o1 | 2.89 |
| Cc1cc(C)c2c(n1)nn1c(NCCN3CCOCC3)cc(C)nc21 | 16.1 |
| O=c1[nH]cnc2c1nc(NCc1ccccc1)n2C1O[C@@H](CO)[C@H](O)[C@@H]1O (stereo partly shown) | 15.7 |
| Nc1ccc(C(=O)Nc2ccc3nc(-c4cccnc4)[nH]c3c2)cc1 | 14.2 |
| CC(C)(C)c1nc(-c2ccccc2)nc2c1OCCC2 | 15.6 |
| NC(=O)N1CCCC1C(=O)Nc1ccc(Cl)c(Cl)c1 (stereo not shown) | 11.3 |
| CCOc1cccc(C(=O)Nc2cnn(Cc3ccccc3)c2)c1 | 10.7 |
| O=C(O)c1ccccc1SC1CC(=O)N(c2ccc3c(c2)OCO3)C1=O (stereo not shown) | 6.89 |
| O=[N+]([O-])c1ccc2c(c1)C(N1CCOCC1)/C(=C/C1(O)CCCCC1)O2 (stereo not shown) | 0.6 |
| C1=Nc2c(NCc3ccccc3)ncnc2Oc2ccccc21 | 5.41 |
| COc1ccccc1NS(=O)(=O)c1ccc(C)c(NC(=O)C2CCCO2)c1 (stereo not shown) | 9.66 |
| O=C(NCCc1ccc(Cl)cc1)C1CCCO1 (stereo not shown) | 12.2 |

| SMILES | hERG current change (%, negative = inhibition) at 1uM [%] |
| --- | --- |
| Cl.O=C(NCc1ccncc1)c1cccc(Cn2cc(Br)cn2)c1 | 8.34 |
| Cc1cc(/C=C(\C#N)c2nnc(N3CCOCC3)n2-c2ccccc2)c(C)n1-c1ccccc1 | 9.2 |
| COCCNC(=O)CSc1nc2cc(OC)c(OC)cc2c(=O)n1CCc1ccc(S(N)(=O)=O)cc1 | 13.8 |
| O=c1c2cnn(-c3ccccc3Cl)c2ncn1Cc1cccnc1 | 11.9 |
| O=C(c1cccnc1)N1CCN(S(=O)(=O)c2cccc(Cl)c2)CC1 | 10.8 |
| CCn1cc(C(=O)O)c(=O)c2cc(Br)ccc21 | -0.38 |
| CC(C)NC(=O)CSc1nnc(C2CC2)n1-c1ccccc1 | 11 |
| O=c1c([N+](=O)[O-])c(N2CCOCC2)c2ccccc2n1Cc1ccccc1 | 13.3 |
| COc1ccc(CCNC(=O)CSc2cccc3cccnc23)cc1OC | -2.88 |
| CC(=O)Oc1ccc2nc(-c3ccco3)oc(=O)c2c1 | 0.312 |
| CN(C)CCn1c(=N)n(CC(O)c2ccc(Cl)c(Cl)c2)c2ccccc21.Cl (stereo not shown) | -41.3 |
| Cc1cc(C)c2nc(SCC(=O)N3CC(=O)Nc4ccccc43)c(C#N)cc2c1 | 23.5 |
| CN(C)CCCNC(=O)c1ccc(=O)[nH]n1 | 12.2 |
| O=C(NCc1ccc(F)cc1)c1cnc2n(c1=O)CCS2 | -0.209 |
| Cc1cc(NC(=O)CCC(=O)N(Cc2ccco2)C2(C(=O)NC3CCCC3)CCCCC2C)no1 (stereo not shown) | 10.2 |
| O=C1c2cccc3cccc(c23)C(=O)N1CCN1CCN(C(=S)Nc2ccc(Cl)cc2)CC1 | 20.8 |
| Cc1cc(NS(=O)(=O)c2ccc(NC(=O)CSc3nnc(-c4ccco4)n3C)cc2)nc(C)n1 | 13.2 |
| C/C(CC(=O)NCc1ccco1)=N\NC(=O)c1ccc(Cl)cc1Cl | 15.2 |
| COc1cccc(CN(C(=O)c2cc3ccccc3oc2=O)C2CCS(=O)(=O)C2)c1 (stereo not shown) | 17.8 |
| C=CCNc1oc(/C=C/c2ccccc2)nc1C#N | -1.24 |
| CC(C)(C)NC(=O)NC(=O)CSc1ccc(S(=O)(=O)N2CCCCC2)cn1 | 8.1 |
